Assay results reported in the BET-seq Pho4 binding data (Le et al. 2018).
This is one part of the list. Values were computed here from the reads of four pooled replicates and scatter widely.

Target: T1, Pho4 (S. cerevisiae) (UniProt P07270)
T1 sequence: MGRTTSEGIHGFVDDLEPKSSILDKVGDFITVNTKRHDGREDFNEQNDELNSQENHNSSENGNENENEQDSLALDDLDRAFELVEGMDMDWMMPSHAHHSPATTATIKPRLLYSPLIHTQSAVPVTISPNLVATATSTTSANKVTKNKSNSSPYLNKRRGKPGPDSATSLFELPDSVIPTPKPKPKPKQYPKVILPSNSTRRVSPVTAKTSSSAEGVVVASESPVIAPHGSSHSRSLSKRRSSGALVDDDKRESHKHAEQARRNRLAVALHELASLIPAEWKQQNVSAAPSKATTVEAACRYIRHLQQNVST
Experiment: relative binding free energy (BET-seq); higher = weaker binding
Conditions: reference: library average

| Sequence | relative binding free energy [kcal/mol] |
| --- | --- |
| GGCTTCACGTGTATTG | 0.11 |
| TTTGGCACGTGCATGG | -0.17 |
| TGAGCCACGTGCTGTG | -0.13 |
| TATTTCACGTGTATGA | 0.26 |
| ATACTCACGTGTTGAT | 0.21 |
| AGTTGCACGTGCGGTG | -0.02 |
| TGTTACACGTGTGAAA | 0.19 |
| CGGTCCACGTGGGGCA | -0.08 |
| TATATCACGTGAACGG | 0.26 |
| ATTAGCACGTGTGTTT | -0.05 |
| AGTGTCACGTGATTAC | 0.2 |
| GTTGACACGTGTCTGA | 0.11 |
| CGTGCCACGTGTGTTT | -0.12 |
| GTAATCACGTGATCGT | 0.3 |
| CGACGCACGTGGTAGG | -0.08 |
| GAGTTCACGTGCTAGG | 0.17 |
| CGTGTCACGTGAGAGA | 0.4 |
| TGTATCACGTGAATGT | 0.42 |
| AGGTGCACGTGGTCGC | -0.09 |
| GAGAGCACGTGTATAT | 0.05 |
| AAAGGCACGTGGCGTG | -0.28 |
| TGCTACACGTGTATGG | 0.17 |
| CGGGGCACGTGTTCGA | -0.13 |

| Sequence | relative binding free energy [kcal/mol] |
| --- | --- |
| GCGGGCACGTGGCGTA | -0.13 |
| ATTGCCACGTGAGCGG | 0.06 |
| TATGGCACGTGCGTGT | -0.19 |
| TTGCGCACGTGTGTGT | -0.07 |
| TGGTGCACGTGTGTAT | 0.07 |
| ATGGGCACGTGTTTCT | -0.06 |
| TCGCACACGTGGGGGT | -0.07 |
| TGTTCCACGTGTAAGT | 0.16 |
| GGGTCCACGTGTAGTG | 0.06 |
| GGTCACACGTGGTTTT | 0.06 |
| AGATTCACGTGGTTGG | 0.24 |
| CATCGCACGTGAGGGG | 0.05 |
| ACCTTCACGTGGGAGG | 0.22 |
| TTTATCACGTGTTGTT | 0.14 |
| GCTAGCACGTGAGGGG | 0.08 |
| AGCGGCACGTGAGTTA | 0.12 |
| TTTTACACGTGGCATA | 0.06 |
| TTATTCACGTGCGTTA | 0.27 |
| ATATTCACGTGTTTGA | 0.21 |
| TCAGGCACGTGTTGTT | -0.23 |
| TATTTCACGTGTATGG | 0.28 |
| TTGTGCACGTGGTTCA | -0.13 |
| ATGTTCACGTGGAGTT | 0.21 |

| Sequence | relative binding free energy [kcal/mol] |
| --- | --- |
| ATAGGCACGTGCTGTT | -0.13 |
| ATTTGCACGTGTGCAT | 0.03 |
| CGGCTCACGTGGGGGG | 0.15 |
| AGGCGCACGTGGGTCG | -0.31 |
| GAGTTCACGTGAAGAG | 0.32 |
| TTATTCACGTGGTACA | 0.14 |
| TGGATCACGTGGTGGA | 0.28 |
| CTGGACACGTGTAGTA | 0.11 |
| TGTGGCACGTGTGCGT | -0.11 |
| GTTAGCACGTGAGCGT | 0.07 |
| ATTGTCACGTGAAATT | 0.34 |
| CGTGGCACGTGCACGG | -0.16 |
| TGTATCACGTGTTGGA | 0.08 |
| TAATTCACGTGTAGTT | 0.27 |
| TAATGCACGTGGCTAT | -0.08 |
| GTTATCACGTGGTCCT | 0.09 |
| AGTTGCACGTGGACGT | 0.03 |
| TGGACCACGTGTGGTG | -0.07 |
| TGGACCACGTGGTGGA | 0.04 |
| TTGCGCACGTGTTGAA | -0.05 |
| GAATGCACGTGGTGTA | -0.19 |
| TCTTTCACGTGTTAGA | 0.22 |
| AGGTACACGTGTAGTC | 0.12 |

| Sequence | relative binding free energy [kcal/mol] |
| --- | --- |
| TATAGCACGTGTAGGC | -0.05 |
| AGTGACACGTGTGGAC | 0.05 |
| TTCAACACGTGTGGGA | 0.06 |
| TTATTCACGTGTGGCT | 0.24 |
| GTGTTCACGTGAAGTC | 0.36 |
| TGGTGCACGTGGTAGG | -0.12 |
| TAGCGCACGTGTAGTA | -0.02 |
| TATGCCACGTGGTGTG | -0.18 |
| GTAACCACGTGTTTGG | 0 |
| TGAGTCACGTGGTTTA | 0.1 |
| AACTGCACGTGGGAGT | 0.02 |
| GGTTTCACGTGGAAGC | 0.24 |
| CTGCTCACGTGTTGGT | 0.05 |
| AAAGTCACGTGTGCTG | 0.01 |
| TGTTTCACGTGTTGAC | 0.34 |
| TTCCGCACGTGTGTTT | 0.03 |
| GTTCGCACGTGTAGGG | 0.06 |
| AAGGACACGTGTGGAA | 0.16 |
| TTGAGCACGTGTAGTG | -0.01 |
| TGTTGCACGTGGGTCA | -0.26 |
| ACAGGCACGTGGGTGA | -0.24 |
| CGAGGCACGTGTGGAA | -0.02 |
| TTTGGCACGTGGGACC | -0.19 |

| Sequence | relative binding free energy [kcal/mol] |
| --- | --- |
| TGGTACACGTGGTATA | 0 |
| ATGCACACGTGATGGT | 0.12 |
| GTAACCACGTGTTTGT | -0.1 |
| AGGACCACGTGTGGAT | 0.06 |
| AGTTACACGTGATGGC | 0.16 |
| TCGTTCACGTGGGGCA | 0.24 |
| CGAATCACGTGGGGTA | 0.02 |
| GTGGGCACGTGCAGTT | -0.03 |
| GTTACCACGTGGGGTG | -0.2 |
| GGTGGCACGTGGGCCT | -0.09 |
| GGATTCACGTGCGGTG | 0.33 |
| GGGCGCACGTGAGGTG | 0.22 |
| TAAGGCACGTGATGAT | -0.02 |
| TTTATCACGTGGTCGG | 0.09 |
| TTATGCACGTGGGGGA | -0.24 |
| TGGAGCACGTGCTAGG | -0.2 |
| TAAGGCACGTGAAGTT | 0.16 |
| TGAAACACGTGGAGGT | 0.02 |
| TCTGGCACGTGCAGGA | -0.05 |
| ACCGGCACGTGAGGGG | 0.08 |
| ATGTACACGTGTGATA | 0.24 |
| TCGTTCACGTGGTGCG | 0.22 |
| TGGCTCACGTGGAGCG | 0.11 |
